# Assay results as given in the supplement of paper PMC3724861.
# The other results are listed elsewhere or left out.
# Tested on: T1, Caupolican (Caup) homeodomain DNA-binding domain
# T1 sequence: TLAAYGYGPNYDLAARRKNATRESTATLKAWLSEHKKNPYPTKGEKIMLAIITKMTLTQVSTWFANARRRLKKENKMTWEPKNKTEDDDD
# Experiment: PBM E-score (8-mer, recovered from the published 9-mer minima) (E-score (dimensionless, -0.5 to 0.5)); Drosophila protein; higher = stronger relative binding preference, active = 0.31 or more
# In short: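 Caup's homeodomain DNA-binding domain (residues 214-303) was produced by in vitro transcription and translation and applied at 100 nM to custom-designed protein binding microarrays. Each value is an enrichment score giving relative binding preference for a short DNA word; higher means stronger. Published 9-mer scores were the minimum of their two constituent 8-mer scores, and the 8-mer values were recovered from those minima. A cutoff of 0.31 marks candidate binding sequences.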
row,Sequence,PBM E-score
1,CGGTACCA,inactive: -0.0298
2,ATATTAAA,inactive: 0.213
3,CATAGCAA,inactive: 0.0993
4,GGTGAGCA,inactive: -0.0462
5,GCATGTAC,active: 0.413
6,CTCGTAAG,inactive: 0.0911
7,AGCTTATC,inactive: -0.0656
8,CGAGTGCA,inactive: 0.0315
9,CTCCCGAG,inactive: -0.208
10,CGGCTGAG,inactive: -0.153
11,CACTTCTC,inactive: -0.0707
12,ATTGCGAC,inactive: 0.0529
13,CCTTACTC,inactive: -0.0706
14,GCGGTGGA,inactive: -0.2
15,AGGCGGAT,inactive: -0.114
16,GAGAAAAA,inactive: -0.0131
17,CACCAAGG,inactive: -0.137
18,TCCGGTAA,inactive: 0.0191
19,CAAGACGC,inactive: -0.0603
20,GGAAAAAA,inactive: -0.0118
21,ATTCGATA,inactive: 0.127
22,CGCTACAG,inactive: 0.0256
23,AAAGCGAT,inactive: -0.0933
24,ATGCTACC,inactive: 0.0307
25,AGAAGCAT,inactive: 0.0713

row,Sequence,PBM E-score
1,CGTAATGC,inactive: 0.0774
2,TCAAGAAA,inactive: 0.087
3,AATACCTA,≥ 0.144
4,ACCATGGG,inactive: -0.0949
5,GCAGGTAC,inactive: 0.00032
6,GTATACTA,inactive: 0.16
7,CCCATGGG,inactive: -0.113
8,AGGAAAAA,inactive: 0.0674
9,GCCGCAAA,inactive: -0.157
10,ACCCTAAA,inactive: -0.00402
11,TATTAGAA,≥ 0.178
12,ATCAAGTC,inactive: 0.0937
13,AGTCTCTG,inactive: -0.0765
14,ACACACCG,inactive: 0.193
15,AGAAAATC,inactive: -0.011
16,AGATCGAT,inactive: 0.0539
17,ACGATTTC,inactive: 0.106
18,CAGCGGGA,inactive: -0.198
19,CGATTTTA,inactive: 0.112
20,CCGTGAAC,inactive: 0.0199
21,CGCGAATA,inactive: -0.0265
22,CAGACGTC,inactive: -0.00226
23,CAGAAATC,inactive: -0.00258
24,ACCCACAG,inactive: 0.0192
25,CCTGGTTC,inactive: -0.0801

row,Sequence,PBM E-score
1,CTATGTCC,inactive: 0.193
2,AAGGTTCT,inactive: -0.082
3,ACGATCTC,inactive: -0.0606
4,ATATCGAA,≥ 0.15
5,AAGAAAAC,inactive: 0.0287
6,ATACGGAC,inactive: 0.0687
7,CTTACACA,inactive: 0.201
8,GTCACCCA,inactive: -0.0906
9,AACAGGCA,inactive: 0.129
10,CGTCGACC,inactive: -0.0713
11,ATAGCCGC,inactive: -0.171
12,ACTCCATA,≥ 0.109
13,ACGGCGCG,inactive: -0.119
14,CACCGCAG,inactive: -0.144
15,GTAGCAAC,inactive: 0.128
16,CACGTTGG,inactive: 0
17,CGTTTAGA,inactive: -0.0316
18,GAGCGCCA,inactive: -0.226
19,AACTACGC,inactive: 0.0172
20,AAGACCAG,inactive: -0.0777
21,CTGGAATA,inactive: 0.0218
22,ACTGAGTA,inactive: 0.0357
23,GATATATC,inactive: 0.115
24,GTCCACAC,inactive: 0.00307
25,CGTCTGCC,inactive: -0.188

row,Sequence,PBM E-score
1,GCTCGGAC,inactive: -0.0309
2,ATTCTTGC,inactive: -0.0196
3,CTTGCTCA,inactive: -0.0446
4,ACATACAT,active: 0.427
5,AATATGGG,inactive: -0.0176
6,CGCAGCAC,inactive: -0.216
7,AGAGCATA,inactive: -0.0187
8,CGTGGAAA,inactive: 0.00524
9,ACAGCAAA,inactive: 0.109
10,ACACCCGG,inactive: -0.00956
11,AGTTGCAT,inactive: 0.123
12,ACATTTCA,inactive: 0.207
13,ATAATGCA,inactive: 0.0643
14,AATCCCGA,inactive: 0.033
15,ATAGTTCA,inactive: 0.097
16,GCCGGAAC,inactive: -0.201
17,ATCATAGA,inactive: 0.108
18,TAGCGCTA,inactive: -0.0511
19,ATCGGTAC,inactive: 0.0373
20,TATGGGGA,≥ 0.0166
21,ACATGCCG,inactive: 0.229
22,ATCCCAAC,inactive: 0.0432
23,CAAAACTG,inactive: 0.0889
24,AAGCGGCT,inactive: -0.12
25,AAAGTCGT,inactive: 0.0643

row,Sequence,PBM E-score
1,ACGAAAAC,inactive: 0.127
2,CTGGCTTC,inactive: -0.225
3,CTATCGTC,inactive: 0.0117
4,CTAGTAAA,inactive: 0.211
5,ACAGGCGA,inactive: -0.0478
6,GACCTTCA,inactive: -0.125
7,ACAGCTCG,inactive: -0.0316
8,CGACTGCC,inactive: -0.212
9,ATTAAACG,inactive: 0.191
10,ATCTCGCA,≥ 0.00909
11,TCAGCCAA,inactive: -0.00848
12,AGAATGCG,inactive: -0.0497
13,AGCAGCCG,inactive: -0.0931
14,AATGTGAG,inactive: 0.0877
15,GTTTAAAA,inactive: 0.112
16,ATGTCACA,active: 0.39
17,TGATGGAA,inactive: 0.0727
18,AAGACTAA,inactive: 0.0516
19,GAAGCTGC,inactive: -0.163
20,CCAACTTA,inactive: 0.0269
21,ATTTCAGG,inactive: -0.075
22,GCCATTGA,inactive: -0.0207
23,CGCGTCAC,inactive: -0.00637
24,CTCTTGGC,inactive: -0.165
25,CCTTTGAC,inactive: 0.00273

row,Sequence,PBM E-score
1,CGAAGGCA,inactive: -0.154
2,ATGTTGGC,inactive: 0.0994
3,AAGTGACC,inactive: -0.0168
4,CGACAGCG,inactive: -0.0431
5,ACACCCAA,inactive: 0.0475
6,AGTATCGA,inactive: 0.117
7,GGACACTA,inactive: 0.0299
8,AGGCATTG,inactive: -0.0152
9,GCTAAGGA,inactive: -0.2
10,ACCCGCCG,inactive: -0.115
11,CGCACTGA,inactive: -0.0686
12,ACAGGACA,≥ 0.223
13,AAGTTGCT,inactive: -0.068
14,AGACTAGC,inactive: -0.0746
15,CTAGCGTA,inactive: -0.0972
16,ACTTTTGC,inactive: 0.0193
17,GTACCTAC,inactive: 0.159
18,CTCACCGA,inactive: -0.103
19,ACCTGTTA,inactive: 0.222
20,AGGTGACC,inactive: -0.11
21,AGCAGCAT,≥ 0.0509
22,CGAGCTGA,inactive: -0.103
23,GGTGTTCA,inactive: 0.192
24,CCCACACC,inactive: -0.126
25,GATGTATA,inactive: 0.295

row,Sequence,PBM E-score
1,ACTACTCC,inactive: -0.0438
2,TCCTGGAA,inactive: -0.119
3,CCTTCACA,inactive: 0.0705
4,CACGGCGA,inactive: -0.00155
5,CCAAGGGA,inactive: -0.141
6,CCGCGTAC,inactive: -0.07
7,AACTTCTG,inactive: -0.016
8,ACCGACGC,inactive: -0.088
9,AATCGAGC,inactive: 0.0234
10,CTGACGGA,inactive: -0.00167
11,ACACCAAG,inactive: 0.158
12,AAGGCTAA,inactive: -0.0978
13,GATGGAGC,inactive: -0.058
14,GACTGCCC,inactive: -0.159
15,AGCGGGAC,inactive: -0.146
16,GCAGTGGA,inactive: -0.0738
17,ACACTTAG,inactive: 0.0557
18,ATGAATCG,inactive: 0.0391
19,GAAAGCAC,inactive: 0.0573
20,CACAATGC,inactive: 0.0831
21,AACCGCCC,inactive: -0.173
22,GCGTCGTA,inactive: 0.0227
23,CCTGCAGA,inactive: -0.0882
24,ATGGAAAC,inactive: 0.0872
25,CAGACAAA,inactive: 0.106

row,Sequence,PBM E-score
1,CACTGGGG,inactive: -0.262
2,ATACCCGG,inactive: -0.143
3,GCATAACC,inactive: -0.0492
4,CAAGAGTC,inactive: -0.0606
5,ACATTCTG,inactive: 0.103
6,CCCAGATC,inactive: -0.171
7,GTTTGTAA,inactive: 0.198
8,CGCTCCCA,inactive: -0.17
9,CCTAACTA,inactive: 0.0587
10,ATAGCCGG,inactive: -0.108
11,CCTCCATA,inactive: -0.0938
12,GGCACCCA,inactive: -0.218
13,CTACACAA,inactive: 0.288
14,CCCGTAGG,inactive: -0.214
15,AAAGCGTT,inactive: -0.117
16,GACAGGGA,inactive: 0.0917
17,CGAGTTAG,inactive: 0.0397
18,AATAGTAA,inactive: 0.11
19,CAGGCGAA,inactive: -0.0547
20,AGCGGGGG,inactive: -0.28
21,ACATCATG,inactive: 0.273
22,CATTCGTA,inactive: 0.132
23,AGGGGTCA,inactive: -0.0704
24,TACTCTAA,inactive: 0.0929
25,GCTGACAC,inactive: 0.115

row,Sequence,PBM E-score
1,AAGTTGCC,inactive: -0.119
2,AAGGCTCA,inactive: -0.107
3,ATGGCCCG,inactive: -0.24
4,GCAAATTA,inactive: 0.0975
5,CCACTGGC,inactive: -0.144
6,AACGCGCT,inactive: -0.164
7,AGAGCCCT,inactive: -0.2
8,TGACGGAA,inactive: 0.0111
9,AGGCACTG,inactive: -0.0611
10,CGAAGACA,inactive: 0.0398
11,CCTGCAAG,inactive: -0.207
12,ACTGGGAG,inactive: -0.112
13,GCGATAAA,inactive: -0.0522
14,CGGCGAGC,inactive: -0.178
15,GAGCAACA,inactive: 0.0811
16,CTGGCCTA,inactive: -0.174
17,GACTAGGA,inactive: 0.126
18,AGTTACTA,inactive: 0.185
19,CGATCAAG,inactive: -0.0172
20,AGGGCTAA,≥ -0.0555
21,ACGAGAGC,inactive: -0.111
22,CTATGACC,inactive: -0.00145
23,TCGGACCA,inactive: -0.0836
24,GCGAGATA,inactive: -0.00844
